Data taken from the supplement of paper PMC10338343.
± gives the standard deviation. Whole data set: some 6,600 sequences, median “pre-steady-state target cleavage rate” near 0.07, cut for the highest 2% near 0.72. The list shows a part of the results, in another mix than the full data.

The sequences below were run on MIWI (PIWIL1) piRISC loaded with Kctd7 piRNA (30 nt) (assay: pre-steady-state target cleavage rate (min^-1); MIWI and MILI are mouse PIWI proteins and EfPiwi is from a freshwater sponge; tags in brackets are library labels; higher = faster piRNA-guided slicing of the target). Conditions: guide: Kctd7 piRNA 5'p-UGUUAAUCUCUCAGAGAAGGUGACAGUGAU; auxiliary factor: 500 nM mouse GTSF1.
Method: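 Cleave-'n-Seq: a library of target RNAs (target site embedded in constant flanks, ACAGCATTCCGCGTTAGTGATATCCG... 5' flank; DNA-blocked outside the site) at 0.1 nM was incubated with 1 nM active mouse MILI or MIWI piRISC (synthetic 5'-monophosphorylated piRNA guide) with or without 500 nM mouse GTSF1 at 33 °C for 1 min to 16 h. Uncleaved targets were sequenced and normalised to non-target controls, and the pooled three trials were fitted to a burst-and-steady-state model to give the pre-steady-state cleavage rate (min^-1; k3 is constrained to at most 1e-4). Sequence is the target site only; target names encode pairing extent (gX:gY) and contiguous / 1-mismatch / 2-mismatch / bulge geometry. Fits with R² ≤ 0 are excluded.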

Sequence	pre-steady-state target cleavage rate
UAGUGACAGUGCUUCUCUGAGAGAUUAGACA	0.00704 ± 0.0024
UAGUCACACACCUUCUCUGAGAGAUUAUGA	0.0796 ± 0.016
UAGUGAGUCACCUUCUCUGAGAGAUAACA	0.0971 ± 0.025
UAGUCUGUCACCUUCUCUGAGAGAAAUUGA [g7:g26:cont:t1A]	0.024 ± 0.01
UAGUGACACACCUUCAUCUGAGAGAUUAACA	0.0163 ± 0.0059
UAGUGUGUCACCUUCUCUGUGAGAUUUUGA	0.009 ± 0.0042
UAGUGACAGUGGAAGAGACAGUGAUUAAGA	< 0.0001
UUCACUGUCACCUUCUCUGAGUCAUUAUGA	0.00338 ± 0.0028
UUCACUGUCACCUUCUCUGAGAGAUGUAACA	0.324 ± 0.047
UAGACUGUCACCUUCUCUGACGAGAUUAACA	0.00549 ± 0.0027
UUCACUGUCACCUUCUUUGAGAGAUUAACA	0.564 ± 0.026
UAGUGACUCACCUUCUCUGAGAGAUUAAGA	0.194 ± 0.031
UAGUGACAGACCUUCUCUGAGAGAUGAACA	0.0316 ± 0.0088
UAGUGAGUCACCUUCUCUGAGGAUUAACA	0.00984 ± 0.0056
UAGUGACAGUGCUUCUCUGACAGUUUAACA	< 0.0001
UAGUCUGUCACCUUCUCUGAGAGAUAUUCA	0.211 ± 0.045
UAGUGACACACCUUCUCUGAGAGAUAAUCA	0.074 ± 0.02
AUCACUGUCACCUUGACUGAGAGAUUAACA	0.338 ± 0.058
UAGUCUGUCACCUUCGUCUGAGAGAUUAACA	0.0668 ± 0.015
UAGUGUGUCACCUUCUCUGAGAGAUUAACU [g2:g25:cont:t1U]	0.347 ± 0.035

Sequence	pre-steady-state target cleavage rate
UUGUCUGUCACCUUCUCUGAGAGAUAUUGA	0.0211 ± 0.008
UAGACUGUCACCUUGUCUGUGAGAUUAACA	0.152 ± 0.013
UAGACUGUCACCUUCUCUCAGAGAAUAACA	0.0205 ± 0.0044
UACACACACACCUUCUCUGAGAGAUUAUGA	0.0717 ± 0.018
UAGUCUGUCACCUUCUCUGGGAGAUUAACA	0.485 ± 0.018
UAGUGACAGUCCUUCUCUGAGAGAAAUAGA	< 0.0001
UACACUGUCACCUUCUCUGAGAGUUUAUCA	0.137 ± 0.041
UAGUGACACACCUUCGUCUGAGAGAUUAACA	0.0126 ± 0.004
AUCACUGUCACGUUCUCUGAGAGUUUAACA	0.125 ± 0.018
UAGUGACUCACCUUCUCUGAGAGAUUAAUCA	0.247 ± 0.03
UAGUGACAGACCUUCUCUGAGAGUUUUACA	0.00492 ± 0.0047
UAGUGAGUCACCUUCUCUGAGAGAUAUUCA	0.0772 ± 0.021
UAGACUGUGACCUUCUCUGAGAGAUUAAGA	0.204 ± 0.029
UUCACUGUCACCUUCUCUGAGAGUAUAUGA	0.0917 ± 0.025
UAGUGACAGUGGAAGAGUGAGAGAAAAACA	< 0.0001
UAGUCUGUCACGUUCUCUGAGUGAUUAACA	0.0123 ± 0.0026
UAGUCUGACACCUUCUCUGAGAGUUUAACA	0.211 ± 0.032
UAGUGUGUCUCCUUCUCUGAGAGAUAUUGA	0.00519 ± 0.0043
UAGUGACUCACCUUCUCGAGAGAUUAACA	0.0114 ± 0.0051
